Laboratory results as given in PubChem BioAssay AID463173 (ICCB-Longwood Screening Facility, Harvard Medical School, 2010).
Out of some 52,000 compounds screened, about 4,300 (8.3%) were called active. Cut-off read from the data, not from the text of the source: active = survival mostly below about 52% (no sharp cut-off); inactive = mostly above about 56%. The list shows a part of the results.

Tested on: DeltatarO mutant
Assay: growth inhibition of S. aureus wild type versus tarO mutant, primary screen, teichoic acid synthesis inhibitors, RN4220, OD600 (AID 463173)
Conditions: OD600, 18 h, stronger effect = lower value, screened at 18.75 µg/mL (by protocol)

Question: COc1ccc2c(c1)c(N1CCCC1=O)c(C(=O)Nc1ccc(Cl)cc1C)n2C was tested. Which survival did it give?
Answer: inactive: 124%

Question: With CCN1Cc2cccc(C(=O)Nc3ccc(F)cc3)c2C1=O as the molecule, how does the survival read?
Answer: inactive: 129%

Question: For Cc1ccc(-n2nnc(-c3nsc(NC(=O)c4ccc(C)c(C)c4)n3)c2C)cc1, which survival is on record?
Answer: inactive: 128%

Question: CCc1ccc(CNC(=O)CCn2c(=O)c3cccn3c3ccc(F)cc32)cc1 was tested. Which survival did it give?
Answer: inactive: 91%

Question: Which survival does the source give for COc1cccc(=O)c2c(C)oc(C)c12 here?
Answer: inactive: 95%

Question: For CCN(CC)c1ccc(/C=N/NC(=O)CC(C)C)cc1, which survival is on record?
Answer: inactive: 74%

Question: Which survival does the source give for N#Cc1ccccc1CNCc1cccs1 here?
Answer: inactive: 78%

Question: How did the survival turn out when O=C(Nc1ccc(F)c(F)c1)C1CCCN1S(=O)(=O)c1cccc2nsnc12 (centres undefined) was run?
Answer: inactive: 89%

Question: Which survival does the source give for CCOc1ccccc1NC(=O)COc1ccc(S(=O)(=O)NC2CCCCC2)cc1 here?
Answer: active: 48%

Question: For CCc1ccc(-n2c(CCC(=O)O)ccc2-c2ccc(F)cc2)cc1, which survival is on record?
Answer: active: 29%

Question: How did the survival turn out when COc1ccc(S(=O)(=O)N(CC(=O)Nc2cccnc2)c2ccc(C)cc2)cc1OC was run?
Answer: inactive: 74%

Question: With COc1cc2c(=O)n(CCC(=O)NCC3CCCO3)c(=O)n(CC(=O)Nc3ccc(F)cc3)c2cc1OC (centres undefined) as the molecule, how does the survival read?
Answer: inactive: 136%

Question: With Cc1ccc(O)c(NC(=O)CCS(=O)(=O)c2nc(-c3ccc4c(c3)OCO4)cc(C(F)(F)F)n2)c1 as the molecule, how does the survival read?
Answer: inactive: 64%

Question: With CCN(CC)NC(=S)Nc1ccccc1 as the molecule, how does the survival read?
Answer: inactive: 105%

Question: Which survival does the source give for COc1cccc(C(=O)N2CCN(Cc3cccc(C)c3)CC2)c1OC here?
Answer: inactive: 68%

Question: With CS(=O)(=O)N1CCc2cc(C(=O)Nc3cccc(F)c3)ccc21 as the molecule, how does the survival read?
Answer: inactive: 68%

Question: COc1ccccc1CC(=O)Nc1ccc2nc(N3CCC(C)CC3)cc(C)c2c1 was tested. Which survival did it give?
Answer: inactive: 61%

Question: For Cc1ccc(C)c(Cn2c3ccccc3c3cnn(CC(=O)NC(C)c4ccccc4)c(=O)c32)c1 (centres undefined), which survival is on record?
Answer: inactive: 76%

Question: COc1cccc2sc(N3CCN(C(=O)CCS(=O)(=O)c4ccc(F)cc4)CC3)nc12 was tested. Which survival did it give?
Answer: inactive: 66%

Question: For CCCS(=O)(=O)N1CCC(n2c(C(F)(F)F)nc3cccnc32)CC1, which survival is on record?
Answer: inactive: 93%

Question: Cc1ccc(CNC(=O)C(=O)NCC(c2cccnc2)N2CCN(c3ccccc3F)CC2)cc1 (centres undefined) was tested. Which survival did it give?
Answer: inactive: 66%

Question: With Cc1ccsc1CN(C(=O)c1oc2ccccc2c1C)C1CCS(=O)(=O)C1 (centres undefined) as the molecule, how does the survival read?
Answer: inactive: 80%

Question: Which survival does the source give for COc1cccc(C=Nc2cnn(C)c2C(N)=O)c1O here?
Answer: inactive: 106%

Question: For CCn1c(=O)c2sccc2n2c(CCC(=O)Nc3ccc(OC)c(Cl)c3)nnc12, which survival is on record?
Answer: inactive: 89%

Question: Cc1ccc(C(=O)Nc2nc(-c3ccccc3)ns2)cc1 was tested. Which survival did it give?
Answer: inactive: 59%

Question: For Cc1oc2ncn(C)c(=O)c2c1C(=O)NCCCN(Cc1ccccc1)C(C)C, which survival is on record?
Answer: inactive: 72%

Question: Which survival does the source give for Cc1ccc(NC(=O)Cn2nnc(C(=O)NCCc3ccccc3)c2N)cc1C here?
Answer: active: 46%

Question: How did the survival turn out when CC(C)Oc1ccc(CNC(=O)C2CCN(c3nc4ccccc4n(C)c3=O)CC2)cc1 was run?
Answer: inactive: 84%

Question: How did the survival turn out when CCc1ccc(C2NC(=O)c3[nH]nc(-c4cccc(OC)c4)c32)cc1 (centres undefined) was run?
Answer: inactive: 54%

Question: With Cc1ccc(S(=O)(=O)C(=O)Nc2cccc3nsnc23)cc1 as the molecule, how does the survival read?
Answer: inactive: 94%

Question: O=C(c1ccccc1)N1CCN(C(=O)c2cc3ccccc3oc2=O)CC1 was tested. Which survival did it give?
Answer: inactive: 87%

Question: How did the survival turn out when CCOc1ccc(C(=O)c2cn(Cc3ccc(F)cc3)c3ccc(F)cc3c2=O)cc1 was run?
Answer: inactive: 57%

Question: With Cc1ccc(C)c(CNC(=O)c2cnc3sc(N4CCCC4)nn3c2=O)c1 as the molecule, how does the survival read?
Answer: inactive: 78%

Question: With Cc1cccc(-n2ncc3c(N4CCCCCC4)ncnc32)c1 as the molecule, how does the survival read?
Answer: inactive: 92%

Question: Cc1ccc(CN(Cc2ccco2)C(=O)c2oc3ccc(C)cc3c2C)cc1 was tested. Which survival did it give?
Answer: inactive: 54%

Question: CSc1ccc(C2c3c(oc4ccccc4c3=O)C(=O)N2CCCN2CCOCC2)cc1 (centres undefined) was tested. Which survival did it give?
Answer: inactive: 73%

Question: How did the survival turn out when CC(C)(C)C(=O)OC1=CN(Cc2ccccc2)S(=O)(=O)c2ccccc21 was run?
Answer: inactive: 69%

Question: With CCCNC(=O)CN1CCN(c2ncc(NC(=O)c3ccc(Cl)cc3)cc2C(=O)O)CC1 as the molecule, how does the survival read?
Answer: inactive: 103%

Question: How did the survival turn out when CCCOc1ccccc1C1Oc2nc(SC)nnc2-c2ccccc2N1C(C)=O (centres undefined) was run?
Answer: inactive: 82%

Question: For COCCNC(=O)Cn1ncc2c(C)n(Cc3ccc(C)cc3)c(C)c2c1=O, which survival is on record?
Answer: inactive: 75%

Question: With COc1cccc(NC(=O)c2c(C(=O)Nc3ccccc3)sc3nc(C)cc(=O)n23)c1 as the molecule, how does the survival read?
Answer: inactive: 62%

Question: CCOc1ccc(/C=C/C(=O)Nc2sc3c(c2C(=O)OC)CCC3)cc1 was tested. Which survival did it give?
Answer: inactive: 75%

Question: With CN(C)c1nc(N(C)C)nc(N(C#N)CN2C(=O)c3ccccc3C2=O)n1 as the molecule, how does the survival read?
Answer: inactive: 91%

Question: Which survival does the source give for CCc1ccc(NC(=O)CSc2nc3ncccc3[nH]2)cc1 here?
Answer: inactive: 86%

Question: O=S(=O)(c1ccccc1)c1nc(-c2ccc(F)cc2)oc1N1CCCCCC1 was tested. Which survival did it give?
Answer: active: 33%

Question: With c1ccc(Nc2nc(N3CCCCC3)nc(N3CCCCC3)n2)cc1 as the molecule, how does the survival read?
Answer: inactive: 106%

Question: How did the survival turn out when COc1ccccc1NC(=O)C1=C(C)Nc2nc(SCc3ccccc3Cl)nn2C1c1ccncc1 (centres undefined) was run?
Answer: inactive: 59%

Question: Which survival does the source give for CC(=O)c1c(C)oc2ccc(N(C(=O)c3ccncc3)S(=O)(=O)c3ccc(C)cc3C)cc12 here?
Answer: inactive: 68%

Question: For CCN(CC)S(=O)(=O)c1ccc(C(=O)NCCSc2c(-c3ccc(OC)cc3)[nH]c3ccccc23)cc1, which survival is on record?
Answer: inactive: 104%

Question: With CC(=O)Nc1cccc(NC(=O)CSc2cn(CC(=O)N3CCCCCC3)c3ccccc23)c1 as the molecule, how does the survival read?
Answer: inactive: 88%

Question: Which survival does the source give for CNC(=O)C1CCC(Cn2c(=O)c3sccc3n(CC(=O)Nc3cc(F)ccc3F)c2=O)CC1 (centres undefined) here?
Answer: inactive: 79%

Question: How did the survival turn out when CCOC(=O)c1cccc(NC(=O)N2CCC(CN3CCCCCC3)CC2)c1 was run?
Answer: inactive: 74%

Question: With Cn1c(=O)[nH]c(=O)c2c1nc(N1CCCC1)n2CCO as the molecule, how does the survival read?
Answer: inactive: 85%

Question: Which survival does the source give for O=C(Nc1ccc2oc(-c3cccc(Cl)c3Cl)nc2c1)c1cccc(Br)c1 here?
Answer: inactive: 73%

Question: Which survival does the source give for O=C(c1cn(CCOc2ccc(Cl)cc2)c2ccccc12)C1CCCCC1 here?
Answer: active: 14%

Question: With O=[N+]([O-])c1cc(-c2nc(-c3ccncc3)no2)ccc1NCc1ccccc1 as the molecule, how does the survival read?
Answer: inactive: 109%

Question: For COc1cn(CC(=O)Nc2cc(C)ccc2C)c(CN2CCCCC2)cc1=O, which survival is on record?
Answer: inactive: 90%

Question: For Cc1cc(C)cc(Nc2cc(C(=O)NCc3ccccc3)c3ccccc3n2)c1, which survival is on record?
Answer: inactive: 113%

Question: With O=C(Nc1ccccc1C(F)(F)F)c1cc2ccccn2n1 as the molecule, how does the survival read?
Answer: inactive: 80%
